Measured values from PubChem BioAssay AID652104 (National Center for Advancing Translational Sciences (NCATS), 2013).
Screen size: about 410,000 compounds; about 7,200 (1.8%) were called active. The inconclusive results got no clear call from the source; some entries with a clear call stand among them for comparison. The call rests on the fitted dose curve; in most records, active means well fitted activation curve with a large enough effect; inconclusive means small, poorly fitted or top-dose-only effect, or another doubt; inactive means no such curve, though single readings can be large or run the other way. Potencies beside an inconclusive call are fits to weak or partial responses and may not hold up.

Test: qHTS of TDP-43 Inhibitors; further: nearly all actives have a fitted effect of over 50% in size; on growth rescue (activation): % of control where 0% means no effect
Settings: TDP-43 expressing yeast growth rescue, BacTiter-Glo, 24 h; growth rescue (activation): at 46.1 µM (top of the series) unless noted
In short: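 Growth rescue of TDP-43-toxic yeast measured as ATP luminescence (BacTiter-Glo). Cells grown to mid-log in raffinose, induced in galactose at OD600=0.02, exposed to compound 24 hr at 30 deg C.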
Potency means the concentration at half of the fitted maximal effect; tags describe the fitted curve by direction and shape.

Growth rescue (activation), inactive:
COc1cc(/C(=C/c2ccccc2)c2ccccc2)c2c(c1)oc1ccccc12 -12.2%, COc1ccc(NC(=O)CC2C(=O)N(c3ccccc3)C(=O)N2C2CCCCC2)cc1 (stereo not drawn) 23.6%, Cc1ccc(C(=O)O/N=C(\N)c2cccnc2)cc1[N+](=O)[O-] 24.7%

Potency, inconclusive:
CC(=O)N1CCN(c2cc(N3CCc4ccccc4C3)c(F)cc2[N+](=O)[O-])CC1 20 µM [activator, single point], CCc1ccc(NSc2ccccc2[N+](=O)[O-])cc1 2.51 µM [activator, full curve], CCC(c1nnnn1Cc1ccc2c(c1)OCO2)N1CCN(c2ccc(F)cc2)CC1 (stereo not drawn) 31.6 µM [activator, single point], O=C(NC(=S)Nc1ccccc1N1CCN(C(=O)c2ccccc2)CC1)c1ccccc1F 25.1 µM [activator, single point], COc1ccc(CC(=O)OCN2C(=O)c3ccccc3C2=O)cc1 10 µM [activator, partial curve], O=C(OCC(=O)N1CCc2ccccc2C1)c1c(F)cccc1Cl 31.6 µM [activator, partial curve, poor fit], CS(=O)(=O)N(CC(=O)NCCSCc1ccccc1)c1cc(C(F)(F)F)ccc1Cl 12.6 µM [activator, partial curve], O=c1cc(/C=C/c2ccccc2)oc2ccccc12 12.6 µM [activator, single point], COc1ccccc1-n1nnnc1SCc1ccccc1 22.4 µM [activator, partial curve], COc1ccc(CCNS(=O)(=O)c2ccc(N3CCCCS3(=O)=O)cc2)cc1OC 6.31 µM [activator, single point], COc1ccc(CCCc2nnc(SCC(=O)Nc3ccc(F)cc3)o2)cc1C 5.62 µM [activator, partial curve], CSc1nc(N)nc(SCC(=O)Nc2cccc(F)c2)c1C#N 35.5 µM [activator, single point], N#Cc1ccccc1Sc1ccccc1C(=O)OCc1nnc(-c2ccccc2)o1 35.5 µM [activator, single point], O=C(COC(=O)c1ccc(Br)o1)NCc1ccc(F)cc1 14.1 µM [activator, partial curve], O=c1[nH]cnc2sc3c(c12)CCCCC3 11.2 µM [activator, single point]
